From the supplement of paper PMC12423691
Some of the results follow. Binding of human transcription factors and regulators to the viral nucleoprotein by AlphaScreen, crude cell-free proteins, amounts not normalised, one pass. Fold of the Venus control; higher = more signal. No active / inactive call. Single-pass screen; sequences are the whole Swiss-Prot entries looked up by name.

B1: CRHR2, Q13324 (protein)
chain: MDAALLHSLLEANCSLALAEELLLDGWGPPLDPEGPYSYCNTTLDQIGTCWPRSAAGALVERPCPEYFNGVKYNTTRNAYRECLENGTWASKINYSQCEPILDDKQRKYDLHYRIALVVNYLGHCVSVAALVAAFLLFLALRSIRCLRNVIHWNLITTFILRNVMWFLLQLVDHEVHESNEVWCRCITTIFNYFVVTNFFWMFVEGCYLHTAIVMTYSTERLRKCLFLFIGWCIPFPIIVAWAIGKLYYENEQCWFGKEPGDLVDYIYQGPIILVLLINFVFLFNIVRILMTKLRASTTSETIQYRKAVKATLVLLPLLGITYMLFFVNPGEDDLSQIMFIYFNSFLQSFQGFFVSVFYCFFNGEVRSAVRKRWHRWQDHHSLRVPMARAMSIPTSPTRISFHSIKQTAAV
B2: PHTF1, Q9UMS5 (protein)
chain: MASNERDAISWYQKKIGAYDQQIWEKSIEQTQIKGLKNKPKKMGHIKPDLIDVDLIRGSTFAKAKPEIPWTSLTRKGLVRVVFFPLFSNWWIQVTSLRIFVWLLLLYFMQVIAIVLYLMMPIVNISEVLGPLCLMLLMGTVHCQIVSTQITRPSGNNGNRRRRKLRKTVNGDGSRENGNNSSDKVRGIETLESVPIIGGFWETIFGNRIKRVKLISNKGTETDNDPSCVHPIIKRRQCRPEIRMWQTREKAKFSDGEKCRREAFRRLGNGVSDDLSSEEDGEARTQMILLRRSVEGASSDNGCEVKNRKSILSRHLNSQVKKTTTRWCHIVRDSDSLAESEFESAAFSQGSRSGVSGGSRSLNMSRRDSESTRHDSETEDMLWDDLLHGPECRSSVTSDSEGAHVNTLHSGTKRDPKEDVFQQNHLFWLQNSSPSSDRVSAIIWEGNECKKMDMSVLEISGIIMSRVNAYQQGVGYQMLGNVVTIGLAFFPFLHRLFREKSLDQLKSISAEEILTLFCGAPPVTPIIVLSIINFFERLCLTWMFFFMMCVAERTYKQRFLFAKLFSHITSARKARKYEIPHFRLKKVENIKIWLSLRSYLKRRGPQRSVDVVVSSVFLLTLSIAFICCAQVLQGHKTFLNDAYNWEFLIWETALLLFLLRLASLGSETNKKYSNVSILLTEQINLYLKMEKKPNKKEQLTLVNNVLKLSTKLLKELDTPFRLYGLTMNPLIYNITRVVILSAVSGVISDLLGFNIRLWKIKS
B3: RFX4, Q33E94 (protein)
chain: MHCGLLEEPDMDSTESWIERCLNESENKRYSSHTSLGNVSNDENEEKENNRASKPHSTPATLQWLEENYEIAEGVCIPRSALYMHYLDFCEKNDTQPVNAASFGKIIRQQFPQLTTRRLGTRGQSKYHYYGIAVKESSQYYDVMYSKKGAAWVSETGKKEVSKQTVAYSPRSKLGTLLPEFPNVKDLNLPASLPEEKVSTFIMMYRTHCQRILDTVIRANFDEVQSFLLHFWQGMPPHMLPVLGSSTVVNIVGVCDSILYKAISGVLMPTVLQALPDSLTQVIRKFAKQLDEWLKVALHDLPENLRNIKFELSRRFSQILRRQTSLNHLCQASRTVIHSADITFQMLEDWRNVDLNSITKQTLYTMEDSRDEHRKLITQLYQEFDHLLEEQSPIESYIEWLDTMVDRCVVKVAAKRQGSLKKVAQQFLLMWSCFGTRVIRDMTLHSAPSFGSFHLIHLMFDDYVLYLLESLHCQERANELMRAMKGEGSTAEVREEIILTEAAAPTPSPVPSFSPAKSATSVEVPPPSSPVSNPSPEYTGLSTTGAMQSYTWSLTYTVTTAAGSPAENSQQLPCMRNTHVPSSSVTHRIPVYPHREEHGYTGSYNYGSYGNQHPHPMQSQYPALPHDTAISGPLHYAPYHRSSAQYPFNSPTSRMEPCLMSSTPRLHPTPVTPRWPEVPSANTCYTSPSVHSARYGNSSDMYTPLTTRRNSEYEHMQHFPGFAYINGEASTGWAK
B4: ESRRG, P62508 (protein)
chain: MDSVELCLPESFSLHYEEELLCRMSNKDRHIDSSCSSFIKTEPSSPASLTDSVNHHSPGGSSDASGSYSSTMNGHQNGLDSPPLYPSAPILGGSGPVRKLYDDCSSTIVEDPQTKCEYMLNSMPKRLCLVCGDIASGYHYGVASCEACKAFFKRTIQGNIEYSCPATNECEITKRRRKSCQACRFMKCLKVGMLKEGVRLDRVRGGRQKYKRRIDAENSPYLNPQLVQPAKKPYNKIVSHLLVAEPEKIYAMPDPTVPDSDIKALTTLCDLADRELVVIIGWAKHIPGFSTLSLADQMSLLQSAWMEILILGVVYRSLSFEDELVYADDYIMDEDQSKLAGLLDLNNAILQLVKKYKSMKLEKEEFVTLKAIALANSDSMHIEDVEAVQKLQDVLHEALQDYEAGQHMEDPRRAGKMLMTLPLLRQTSTKAVQHFYNIKLEGKVPMHKLFLEMLEAKV
B5: MLXIP, Q9HAP2 (protein)
chain: MAADVFMCSPRRPRSRGRQVLLKPQVSEDDDDSDTDEPSPPPASGAATPARAHASAAPPPPRAGPGREEPPRRQQIIHSGHFMVSSPHREHPPKKGYDFDTVNKQTCQTYSFGKTSSCHLSIDASLTKLFECMTLAYSGKLVSPKWKNFKGLKLQWRDKIRLNNAIWRAWYMQYLEKRKNPVCHFVTPLDGSVDVDEHRRPEAITTEGKYWKSRIEIVIREYHKWRTYFKKRLQQHKDEDLSSLVQDDDMLYWHKHGDGWKTPVPMEEDPLLDTDMLMSEFSDTLFSTLSSHQPVAWPNPREIAHLGNADMIQPGLIPLQPNLDFMDTFEPFQDLFSSSRSIFGSMLPASASAPVPDPNNPPAQESILPTTALPTVSLPDSLIAPPTAPSLAHMDEQGCEHTSRTEDPFIQPTDFGPSEPPLSVPQPFLPVFTMPLLSPSPAPPPISPVLPLVPPPATALNPPAPPTFHQPQKFAGVNKAPSVITHTASATLTHDAPATTFSQSQGLVITTHHPAPSAAPCGLALSPVTRPPQPRLTFVHPKPVSLTGGRPKQPHKIVPAPKPEPVSLVLKNARIAPAAFSGQPQAVIMTSGPLKREGMLASTVSQSNVVIAPAAIARAPGVPEFHSSILVTDLGHGTSSPPAPVSRLFPSTAQDPLGKGEQVPLHGGSPQVTVTGPSRDCPNSGQASPCASEQSPSPQSPQNNCSGKSDPKNVAALKNRQMKHISAEQKRRFNIKMCFDMLNSLISNNSKLTSHAITLQKTVEYITKLQQERGQMQEEARRLREEIEELNATIISCQQLLPATGVPVTRRQFDHMKDMFDEYVKTRTLQNWKFWIFSIIIKPLFESFKGMVSTSSLEELHRTALSWLDQHCSLPILRPMVLSTLRQLSTSTSILTDPAQLPEQASKAVTRIGKRLGES
B6: PHF1, O43189 (protein)
chain: MAQPPRLSRSGASSLWDPASPAPTSGPRPRLWEGQDVLARWTDGLLYLGTIKKVDSAREVCLVQFEDDSQFLVLWKDISPAALPGEELLCCVCRSETVVPGNRLVSCEKCRHAYHQDCHVPRAPAPGEGEGTSWVCRQCVFAIATKRGGALKKGPYARAMLGMKLSLPYGLKGLDWDAGHLSNRQQSYCYCGGPGEWNLKMLQCRSCLQWFHEACTQCLSKPLLYGDRFYEFECCVCRGGPEKVRRLQLRWVDVAHLVLYHLSVCCKKKYFDFDREILPFTSENWDSLLLGELSDTPKGERSSRLLSALNSHKDRFISGREIKKRKCLFGLHARMPPPVEPPTGDGALTSFPSGQGPGGGVSRPLGKRRRPEPEPLRRRQKGKVEELGPPSAVRNQPEPQEQRERAHLQRALQASVSPPSPSPNQSYQGSSGYNFRPTDARCLPSSPIRMFASFHPSASTAGTSGDSGPPDRSPLELHIGFPTDIPKSAPHSMTASSSSVSSPSPGLPRRSAPPSPLCRSLSPGTGGGVRGGVGYLSRGDPVRVLARRVRPDGSVQYLVEWGGGGIF
B7: TRPS1, Q9UHF7 (protein)
chain: MVRKKNPPLRNVASEGEGQILEPIGTESKVSGKNKEFSADQMSENTDQSDAAELNHKEEHSLHVQDPSSSSKKDLKSAVLSEKAGFNYESPSKGGNFPSFPHDEVTDRNMLAFSSPAAGGVCEPLKSPQRAEADDPQDMACTPSGDSLETKEDQKMSPKATEETGQAQSGQANCQGLSPVSVASKNPQVPSDGGVRLNKSKTDLLVNDNPDPAPLSPELQDFKCNICGYGYYGNDPTDLIKHFRKYHLGLHNRTRQDAELDSKILALHNMVQFSHSKDFQKVNRSVFSGVLQDINSSRPVLLNGTYDVQVTSGGTFIGIGRKTPDCQGNTKYFRCKFCNFTYMGNSSTELEQHFLQTHPNKIKASLPSSEVAKPSEKNSNKSIPALQSSDSGDLGKWQDKITVKAGDDTPVGYSVPIKPLDSSRQNGTEATSYYWCKFCSFSCESSSSLKLLEHYGKQHGAVQSGGLNPELNDKLSRGSVINQNDLAKSSEGETMTKTDKSSSGAKKKDFSSKGAEDNMVTSYNCQFCDFRYSKSHGPDVIVVGPLLRHYQQLHNIHKCTIKHCPFCPRGLCSPEKHLGEITYPFACRKSNCSHCALLLLHLSPGAAGSSRVKHQCHQCSFTTPDVDVLLFHYESVHESQASDVKQEANHLQGSDGQQSVKESKEHSCTKCDFITQVEEEISRHYRRAHSCYKCRQCSFTAADTQSLLEHFNTVHCQEQDITTANGEEDGHAISTIKEEPKIDFRVYNLLTPDSKMGEPVSESVVKREKLEEKDGLKEKVWTESSSDDLRNVTWRGADILRGSPSYTQASLGLLTPVSGTQEQTKTLRDSPNVEAAHLARPIYGLAVETKGFLQGAPAGGEKSGALPQQYPASGENKSKDESQSLLRRRRGSGVFCANCLTTKTSLWRKNANGGYVCNACGLYQKLHSTPRPLNIIKQNNGEQIIRRRTRKRLNPEALQAEQLNKQQRGSNEEQVNGSPLERRSEDHLTESHQREIPLPSLSKYEAQGSLTKSHSAQQPVLVSQTLDIHKRMQPLHIQIKSPQESTGDPGNSSSVSEGKGSSERGSPIEKYMRPAKHPNYSPPGSPIEKYQYPLFGLPFVHNDFQSEADWLRFWSKYKLSVPGNPHYLSHVPGLPNPCQNYVPYPTFNLPPHFSAVGSDNDIPLDLAIKHSRPGPTANGASKEKTKAPPNVKNEGPLNVVKTEKVDRSTQDELSTKCVHCGIVFLDEVMYALHMSCHGDSGPFQCSICQHLCTDKYDFTTHIQRGLHRNNAQVEKNGKPKE

Each binder was assayed against nucleoprotein N of Crimean-Congo hemorrhagic fever virus (assay: AlphaScreen luminescence signal relative to Venus negative control (fold); higher = stronger binding to CCHFV N).
Description: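 AlphaScreen binding of cell-free made, FLAG-GST-tagged human transcription factors and regulators (crude translation products) to biotinylated N protein; signal as fold of the FLAG-GST-Venus control. One pass.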

Binder	AlphaScreen luminescence signal
B1	3.44
B2	3.81
B3	2.19
B4	4.93
B5	1.4
B6	1.86
B7	1.86
